According to PubChem BioAssay AID360 (National Center for Advancing Translational Sciences (NCATS), 2006):
Screen size: about 48,000 compounds; about 550 (1.1%) were called active. Another 4% or so got no clear call; they are omitted. No stated cut-off is given here; in the data, active means potency below about 15 µM; inconclusive means mostly about 16 µM to 33 µM; inactive means weaker than that. Some of the results follow.

Target: Lysosomal acid glucosylceramidase (Homo sapiens) (UniProt P04062)
Test: Glucocerebrosidase;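 further: the screen sought inhibitors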
Settings: purified enzyme, resorufin glucoside fluorescence (screen aimed at inhibitors), 20 min
In short: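 Wild-type enzyme at 0.2 nM final in 50mM citric acid/KH2PO4, 10mM sodium taurocholate, 0.01% tween-20, pH 5.9, with resorufin beta-D-glucopyranoside at 30 uM final. Compounds titrated, 20 min at RT, red fluorescence read; AC50 from titration.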
Potency means the concentration at half of the fitted maximal effect.

Chain of UniProt P04062 (P04062 whole entry, looked up): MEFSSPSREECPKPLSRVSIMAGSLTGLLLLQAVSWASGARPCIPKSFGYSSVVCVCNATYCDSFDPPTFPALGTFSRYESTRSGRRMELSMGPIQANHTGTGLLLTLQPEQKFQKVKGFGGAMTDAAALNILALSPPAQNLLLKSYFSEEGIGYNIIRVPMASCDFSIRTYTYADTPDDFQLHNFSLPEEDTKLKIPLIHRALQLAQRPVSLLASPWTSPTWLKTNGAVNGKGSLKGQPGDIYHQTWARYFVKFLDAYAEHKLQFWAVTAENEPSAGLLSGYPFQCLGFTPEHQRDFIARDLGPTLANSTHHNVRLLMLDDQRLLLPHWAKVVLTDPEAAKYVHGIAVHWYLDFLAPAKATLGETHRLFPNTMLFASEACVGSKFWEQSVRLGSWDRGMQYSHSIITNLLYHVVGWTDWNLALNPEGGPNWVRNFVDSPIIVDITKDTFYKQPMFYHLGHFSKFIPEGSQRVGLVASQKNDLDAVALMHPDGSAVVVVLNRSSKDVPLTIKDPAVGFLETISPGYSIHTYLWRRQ

Row | Structure (SMILES) | Potency
1 | Cc1ccc(-c2nc3ncccn3c2NC2CCCC2)o1 | inactive: > 76.9 µM
2 | O=C(CSc1nnc(-c2ccco2)o1)c1ccc(F)c(F)c1 | inactive: > 76.9 µM
3 | Cc1ccc(NC(=O)c2c(O)c3ccccc3n(C)c2=O)nc1 | inactive: > 76.9 µM
4 | CCCN(CCC)CCNS(=O)(=O)c1ccc2c(c1)oc(=O)n2C | inactive: > 76.9 µM
5 | Cc1cnc(C)c(N2CCC(C(=O)NC(C)c3cccs3)CC2)n1 (stereo unspecified) | inactive: > 76.9 µM
6 | Cn1c(=O)c2c(nc(CN3CCN(C(=O)c4ccco4)CC3)n2CCc2ccccc2)n(C)c1=O | inactive: > 76.9 µM
7 | CCc1ccccc1OCC(=O)NC1CCCC1 | inactive: > 76.9 µM
8 | O=C(CN1C(=O)COc2ccccc21)NCCC1=CCCCC1 | inactive: > 76.9 µM
9 | O=C(CN1CCN(C(=O)N2CCCCC2)CC1)Nc1ccc(F)cc1 | inactive: > 76.9 µM
10 | Cc1ccc(SC(C)c2nc(-c3ccncc3)no2)cc1 (stereo unspecified) | inactive: > 76.9 µM
11 | COC(=O)CC(=O)CSc1nc2c(cc1C#N)CCCCC2 | inactive: > 76.9 µM
12 | Cc1nc2nc[nH]n2c(=O)c1NS(C)(=O)=O | inactive: > 76.9 µM
13 | O=C(CC1=NCCNC(c2ccccc2)C1)c1ccccc1O (stereo unspecified) | inactive
14 | O=C(c1ccccc1)c1cccn1CC(=O)N1CCN(c2ccccc2)CC1 | inactive: > 76.9 µM
15 | CC(C)n1nnnc1SCC(=O)Nc1ccccc1N1CCOCC1 | inactive: > 76.9 µM
16 | Cc1ccc(S(=O)(=O)c2c(N)n(C)c3nc4ccccc4nc23)cc1 | inactive: > 76.9 µM
17 | Nn1c(-c2cccc(Br)c2)n[nH]c1=S | inactive: > 76.9 µM
18 | Cc1n[nH]c(=O)nc1NC1CCCCC1 | inactive: > 76.9 µM
19 | CC(C)Nc1nc(SCC(=O)Nc2ccccc2)nc(N2CCOCC2)n1 | inactive: > 76.9 µM
20 | O=c1cc(-c2ccccc2)c2ccc(O)c(CN3CCCCC3)c2o1 | inactive: > 76.9 µM
21 | CCn1c(COc2ccc(Cl)cc2)nnc1SCC(=O)Nc1ccc2c(c1)OCCO2 | inactive: > 76.9 µM
22 | CCOc1ccccc1CN1CCN(S(=O)(=O)CC)CC1 | inactive: > 76.9 µM
23 | CCOc1ccc(OCc2cccc(C(=O)N3CCOCC3)c2)cc1 | inactive: > 76.9 µM

Row | Structure (SMILES) | Potency
24 | CCNc1nc(OC)nc(Oc2ccc(=O)n(-c3ccccc3)n2)n1 | inactive: > 76.9 µM
25 | CCn1c(SCC(=O)Nc2ccccc2F)nc2c(c1=O)SC(C)C2 (stereo unspecified) | inactive: > 76.9 µM
26 | COCCn1c(-c2cc(OC)c(OC)c(OC)c2)nc2oc3ccccc3c(=O)c2c1=O | inactive: > 76.9 µM
27 | CC(=O)NCCn1c(SCc2ccccc2F)nc2ccccc2c1=O | inactive: > 76.9 µM
28 | CC(c1ccccc1)n1cc(C(=O)NCCCn2ccnc2)nn1 (stereo unspecified) | inactive: > 76.9 µM
29 | O=C(c1ccccc1CCc1ccccc1)N1CCN(c2ccccn2)CC1 | inactive: > 76.9 µM
30 | c1ccc(CN2CCN(CCN3CCn4c3nc3ccccc34)CC2)cc1 | inactive: > 76.9 µM
31 | O=C(OCn1nnc2ccccc2c1=O)c1ccc2c(=O)n3c(nc2c1)CCC3 | inactive: > 76.9 µM
32 | COc1ccc(C(C(O)C(=O)c2c[nH]c3ccccc23)N2CCN(c3ccccc3)CC2)cc1 (stereo unspecified) | inactive
33 | CC(=O)N(CC(C)(C)CC=C(C)C)c1ccccc1 | inactive: > 76.9 µM
34 | Cc1cc(C)n(-c2ccc(C(=O)OCc3nnc(-c4ccccc4)o3)cc2)n1 | inactive: > 76.9 µM
35 | COCCSc1ccccc1C(=O)NCC1CCCO1 (stereo unspecified) | inactive: > 76.9 µM
36 | CC(C)CCn1c(Cl)nc2c1c(=O)n(C)c(=O)n2C | inactive: > 76.9 µM
37 | CCOc1ccc(OCC)c(NC(=O)CCCN2C(=O)c3cccnc3C2=O)c1 | inactive: > 76.9 µM
38 | Cc1noc(C)c1S(=O)(=O)Nc1ccc(C(=O)NC2CCCCC2)cc1 | active: 4.09 µM
39 | C=CCn1c(SCC(N)=O)nc(C)cc1=O | inactive: > 76.9 µM
40 | COC(=O)CSc1nc2cc(Cl)ccc2c(=O)n1C1CCCC1 | inactive: > 76.9 µM
41 | CC1Cc2nc(SCC(=O)Nc3ccc(F)cc3F)n(C)c(=O)c2S1 (stereo unspecified) | inactive: > 76.9 µM
42 | Cc1ccc(S(=O)(=O)N2CCC(C(=O)OC(C)C(=O)NCc3ccc4c(c3)OCO4)CC2)cc1 (stereo unspecified) | inactive: > 76.9 µM
43 | CC(=O)N1CCN(S(=O)(=O)c2ccc(S(=O)(=O)NC3CC3)cc2)CC1 | inactive: > 76.9 µM
44 | COc1ccc(CNS(=O)(=O)c2ccc3oc(C(=O)O)c(C)c3c2)cc1 | inactive: > 76.9 µM
45 | CC(C)Oc1ccc(NC(=O)c2ccncc2)cc1 | active: 7.88 µM
46 | O=C(C1CCN(c2ccc(N3CCOCC3)nn2)CC1)N1CCN(c2ccc(F)cc2)CC1 | inactive: > 76.9 µM

Row | Structure (SMILES) | Potency
47 | Cc1ccc(Cn2nnc3c(=O)[nH]c(C4CCN(C(=O)c5cccs5)CC4)nc32)cc1 | inactive
48 | CCOC(=O)N1CCC(N2Cc3cccc(C(=O)NCc4ccc(OC)cc4)c3C2=O)CC1 | inactive: > 76.9 µM
49 | COC(=O)[C@H](C)NC(=O)Nc1ccc(OC)c(OC)c1 | inactive: > 76.9 µM
50 | Cn1nnnc1SCC(=O)NCCc1ccc(Cl)cc1 | inactive: > 76.9 µM
51 | COc1ccc(S(=O)(=O)CCC(=O)NCCc2ccc(S(N)(=O)=O)cc2)cc1 | inactive: > 76.9 µM
52 | CCOC(=O)C(C(=O)OCC)C1N=C(N)N=C2Oc3ccccc3N21 (stereo unspecified) | inactive: > 76.9 µM
53 | Cc1ccc(-c2noc(C3CCCN(C(=O)c4c(F)cccc4F)C3)n2)cc1 (stereo unspecified) | inactive: > 76.9 µM
54 | CCOC(=O)Cn1cc(C(=O)OC)c2ccccc21 | inactive: > 76.9 µM
55 | COc1ccc(C(=O)N2CCC(C(=O)NCc3ccccn3)CC2)cc1 | inactive: > 76.9 µM
56 | CC(C)(C)n1ncc2c(=O)n(CC(=O)Nc3ccc(Cl)cc3)cnc21 | inactive: > 76.9 µM
57 | Cc1ccc(C(=O)CC2(O)C(=O)N(Cc3ccccc3)c3ccccc32)o1 (stereo unspecified) | inactive: > 76.9 µM
58 | O=C(c1cccs1)N1CCCC(c2nc(-c3ccc(F)cc3)no2)C1 (stereo unspecified) | inactive: > 76.9 µM
59 | CC(C)C1N(S(=O)(=O)c2ccccc2)CCN1S(=O)(=O)c1ccccc1 | inactive: > 76.9 µM
60 | O=C(Cn1c(=O)sc2ccccc21)NCc1ccco1 | inactive: > 76.9 µM
61 | Cc1cnn(-c2nc(-c3cccs3)cc(C(F)(F)F)n2)c1 | inactive: > 76.9 µM
62 | CCOC(=O)/C(C(N)=NCc1ccco1)=C(/O)c1ccccc1 | inactive: > 76.9 µM
63 | CCOC(=O)N1CCN(C(=O)CSc2nnc(CNC(=O)c3c(F)cccc3Cl)o2)CC1 | inactive: > 76.9 µM
64 | COc1cc2c(cc1OC)C(C(=O)O)C(c1ccc(C)o1)N(C)C2=O (stereo unspecified) | inactive: > 76.9 µM
65 | Cc1ccc(NC(=O)c2ccc(S(=O)(=O)NCC3CCCO3)cc2)cc1 (stereo unspecified) | inactive: > 76.9 µM
66 | CCCn1c(=O)c2ccccc2n2c(SCC(=O)c3ccccc3)nnc12 | inactive: > 76.9 µM
67 | Cc1nc2ccccc2c(=O)n1/N=C/c1ccc(O)cc1 | inactive: > 76.9 µM
68 | CCC(C)NC(=O)C1CC(c2cccc(OC)c2)=NO1 (stereo unspecified) | inactive: > 76.9 µM
69 | CCOC(=O)N1CCN(Cc2nc3c(c(=O)n(C)c(=O)n3C)n2Cc2cccc(C)c2)CC1 | inactive: > 76.9 µM

Row | Structure (SMILES) | Potency
70 | COc1ccc(CNc2nc3nc(C)c(Cl)c(=O)n3[nH]2)cc1OC | inactive: > 76.9 µM
71 | Cc1cccc(NC(=O)c2ccccc2OCC(=O)N2CCOCC2)c1C | inactive: > 76.9 µM
72 | CCOC(=O)C(NC(=O)Nc1cccc(C)n1)(OCC(F)(F)F)C(F)(F)F (stereo unspecified) | inactive: > 76.9 µM
73 | Cc1ccc2cc(CN(Cc3cccs3)Cc3nnnn3C(C)(C)C)c3nnnn3c2c1 | inactive: > 76.9 µM
74 | Cc1csc(SCCN2C(=O)c3ccccc3C2=O)n1 | inactive: > 76.9 µM
75 | COC(=O)Cn1c(CN(Cc2ccccc2)Cc2ccccc2)nc2c1c(=O)[nH]c(=O)n2C | inactive: > 76.9 µM
76 | O=S(=O)(NCCc1ccccc1)c1cccc(S(=O)(=O)N2CCOCC2)c1 | inactive: > 76.9 µM
77 | COc1ccccc1-n1c(SCC(N)=O)nnc1-c1ccccc1 | inactive: > 76.9 µM
78 | COc1ccc(-c2nc3cc(NC(=O)c4ccc5c(c4)OCO5)ccc3o2)cc1 | inactive: > 76.9 µM
79 | Cc1cccc(NC(=O)CCn2nc(C)cc2C)c1 | inactive: > 76.9 µM
80 | CCc1ccccc1-n1c(-c2ccncc2)n[nH]c1=S | inactive: > 76.9 µM
81 | O=C(COc1ccc(S(=O)(=O)Nc2ccccc2)cc1)N1CCOCC1 | inactive: > 76.9 µM
82 | CCCNC(=O)c1cccc(COCC(F)(F)C(F)F)c1 | inactive: > 76.9 µM
83 | CCSc1ncc(C#N)c(=O)[nH]1 | inactive: > 76.9 µM
84 | Nc1nonc1-c1nc2ccccc2n1Cc1ccc(F)cc1Cl | inactive: > 76.9 µM
85 | Cc1ccc(C(=O)CC2(O)C(=O)N(CCc3ccccc3)c3ccc(Br)cc32)o1 (stereo unspecified) | inactive: > 76.9 µM
86 | CCOc1ccc(C(=O)CSc2nnc(N)s2)cc1 | inactive: > 76.9 µM
87 | CC(=O)Nc1ccc2c(c1)CCC2=O | inactive: > 76.9 µM
88 | CCOC(=O)c1c(C)[nH]c(NC(=O)N2CCOCC2)c1C | inactive: > 76.9 µM
89 | Cc1ccc(-c2ccc(=O)n(CC(=O)NCCN3C(C)CCCC3C)n2)cc1 (stereo unspecified) | inactive: > 76.9 µM
90 | Cc1nc2cc(N3CCCCC3)c(NC(=O)c3cccnc3)cc2c(=O)n1Cc1ccccc1 | inactive: > 76.9 µM
91 | CC(=O)c1cnc(N2CCCCC2)nc1C | inactive: > 76.9 µM
